Reference: ChEMBL document CHEMBL1201862, “PubChem BioAssay data set” (2004)

What follows are molecules tested on NCI-H322M (assay: NCI anticancer screen, dose series, 48 h).

Compound | GI50
CCC1c2[nH]c3ccccc3c2C[C@H]2C(=O)NC(CCCCNC(=O)OC(C)(C)C)C(=O)N12 (some centres not stated) | inactive: 46.9 µM
CCCC(=O)Nc1ncnc2c1ncn2C1OC2COP(=O)(O)OC2C1OC(=O)CCC (configuration not stated) | inactive: > 100 µM
O=C(O)CSCC(=O)O | inactive: > 100 µM
O=C(NNC(=O)c1ccccc1SSc1ccccc1C(=O)NNC(=O)c1ccccc1S)c1ccccc1S | inactive: 32.5 µM
CC(=O)Nc1nc(O)c2nc(C=O)cnc2n1 | inactive: > 100 µM
COc1ccccc1[C@@H]1CCC2CC[C@@H](c3ccccc3OC)[N+]21Cc1ccccc1 (some centres not stated) | inactive: 2.36 µM
Cc1c2c(n(CCc3ccccc3)c1C)NN=C(C#N)S2(=O)=O | inactive: > 100 µM
Cc1cc(C(O)CCCc2ccccc2)cc(C)c1O (configuration not stated) | inactive: 93.8 µM
CCOC(=O)/C(=C/Nc1c(C)n(C)n(-c2ccccc2)c1=O)C(C)=O | inactive: > 100 µM
COC(OC)c1cccc2c1C(=O)CCC1(CC2)OCCCCO1 | inactive: > 100 µM
C#CCOCC12C=CC(O1)C1C(=O)OCC12 (configuration not stated) | inactive: > 100 µM
Cc1cccc2c(N)c3cccc(C(=O)NCC[N+](C)(C)Cc4ccc([N+](=O)[O-])n4C)c3nc12 | inactive: 18.5 µM
COC(=O)CCCC(=O)C1=NN(c2ccc(Cl)cc2)Cc2ccccc2N1 | inactive: 28.2 µM
CC/C=C(\C(=C/CC)[N+](=O)[O-])[N+](=O)[O-] | inactive: > 100 µM
COc1ccc(-c2c(C#N)c(N)nc(Sc3ccccc3N)c2C#N)cc1 | inactive: 29.5 µM
Nc1cnc2c(c1)c(=O)nc1n2CCS1 | inactive: > 100 µM
COc1ccc2c(c1)-c1nc(=S)n(CCCN(C)C)c3ccc([N+](=O)[O-])c(c13)N2 | active: 0.557 µM
Cn1cccc1/C=C/c1cc(Br)c(/C=C/c2cccn2C)cc1Br | inactive: 18.5 µM
CCOC(=O)c1cc2nc3ccccc3c(=O)n2c2ccccc12 | inactive: > 10 µM
O/N=C1/C2CC3CC1(c1ccccc1)CC(/C3=N/O)/C2=N\O (configuration not stated) | inactive: > 100 µM
Oc1ccc(O)c(-n2cccn2)c1 | inactive: > 100 µM
Oc1ccc(-c2c3ccccc3c(-c3ccc(OCCBr)cc3)c3ccccc23)cc1 | inactive: 22.9 µM
Cc1ccc(S(=O)(=O)N/N=C/c2oc(-c3cccc([N+](=O)[O-])c3)c(-c3cccc([N+](=O)[O-])c3)c2[N+](=O)[O-])cc1 | inactive: > 100 µM

Compound | GI50
Cc1nc(C(N)=S)sc1C(=O)/C=C/c1c(O)ccc2ccccc12 | inactive: > 68.9 µM
O=C(/C=C(\Nc1ccccc1O)c1ccc(Br)cc1)C(Cl)(Cl)Cl | inactive: 2.04 µM
O=C1[C@@H]2C3c4ccccc4C([C@@H]2C(=O)N1c1ccccc1)S3(=O)=O | inactive: > 100 µM
CNC1=Nc2ccccc2C(=O)N2CSCC12 (configuration not stated) | inactive: > 100 µM
COC(=O)[C@@H]1Cc2cc(O)c(O)cc2C2(CCN(C)CC2)O1 | inactive: > 10 µM
NC1(CCNC(=O)c2ccccc2)CCN(C(=O)c2ccccc2)CC1 | inactive: > 100 µM
C(=C\c1ccc(-c2cn3cc(/C=C/C=N/NC4=NCCN4)ccc3n2)cc1)/C=N/NC1=NCCN1 | inactive: 1.95 µM
COC(=O)N/N=C(\C)CC(=O)Nc1ccc(Cl)cc1 | inactive: > 100 µM
Cn1c(=O)n2n(c1=O)Cc1cccc3cccc(c13)C2 | inactive: > 100 µM
CCOc1nnnc2[nH]cnc12 | inactive: > 100 µM
Cc1nn2c(=O)c([N+](=O)[O-])c(/C=C/c3ccccc3)nc2s1 | inactive: 4.12 µM
N/C(=N\O)N/N=C\c1c2ccccc2c(Cl)c2ccccc12 | inactive: 3.06 µM
NC(CCC(=O)O)(CCC(=O)O)CCC(=O)O | inactive: > 100 µM
Nc1nc2c(c(=O)[nH]1)C(c1ccccc1)CC(=O)N2 (configuration not stated) | inactive: > 100 µM
C/C(=N\NC(=N)N)C(CN1CCOCC1)C(c1ccccc1)c1c(O)c2ccccc2oc1=O (configuration not stated) | inactive: > 100 µM
CC1=C(c2cc(C(=O)Nc3cccc(C(F)(F)F)c3)ncn2)Sc2ccccc2N1 | inactive: > 100 µM
COC(=O)c1ccc2c(c1)CC1(C2)Cc2cc3c(cc2C1)CCC3 | inactive: > 100 µM
COc1cc(C(=O)Oc2c(C#N)sc3c2c(=O)n(-c2ccccc2)c(=S)n3-c2ccccc2)cc(OC)c1OC | inactive: 20.8 µM
C#CCNC(=O)NCCCCC(NC(=O)OCc1ccccc1)C(=O)OCc1ccccc1 (configuration not stated) | inactive: > 100 µM
CSc1cc(Cl)c(C)cc1S(=O)(=O)NC(=O)Nc1ccc(Cl)cc1 | inactive: 31 µM
COc1cc2c(/C=C3/C(=O)Nc4cc(C)c(O)cc43)c(Cl)[nH]c2cc1C | inactive: 1.14 µM
COc1ccc2nc3c(c(N)c2c1)C1CCC3C1(C)C (configuration not stated) | inactive: 46.8 µM
CCOC(=O)CCC(NC(=O)c1ccc(Nc2nc3ccccc3nc2C(=O)OCC)s1)C(=O)OCC (configuration not stated) | inactive: > 100 µM

Compound | GI50
CC1(c2nc3cc(Cl)c(Cl)cc3[nH]2)CCC(C(=O)O)C(C)(C)O1 (configuration not stated) | inactive: > 100 µM
COC(=O)CCC(=O)c1ccc2c(c1)CC1(C2)Cc2ccc(C(=O)CCC(=O)OC)cc2C1 | inactive: > 100 µM
CCOC12OC3=C(CC1CC1=C(CCC1=O)O2)C(=O)CC3 (configuration not stated) | inactive: > 100 µM
ClC1=C(Cl)C(Cl)(Cl)c2c3c(c4c(c21)C(Cl)(Cl)C(Cl)=C4Cl)C(Cl)(Cl)C(Cl)=C3Cl | inactive: > 100 µM
c1ccc(C2=C(c3ccccc3)Sc3nnc(CCCCCCCCc4nnc5n4NC(c4ccccc4)=C(c4ccccc4)S5)n3N2)cc1 | inactive: 43.7 µM
CCOC(=O)C(C#N)C1=CC(=O)C(=O)c2ccc(OC)cc21 (configuration not stated) | inactive: 25.6 µM
CC(=O)ONC(C(=O)C(C)(C)C)C(=O)C(C)(C)C | inactive: > 100 µM
C=C1C(OC)=C(OC)C(=O)c2[nH]c3c(OC)cc([N+](=O)[O-])cc3c21 | inactive: > 100 µM
Cc1cc(O)nc(NNC(C#N)c2ccc(N(C)C)cc2)n1 (configuration not stated) | inactive: > 100 µM
N#C/C(=C\c1ccc2ccccc2c1)C(=O)c1ccccc1 | inactive: > 100 µM
O=C1c2ccccc2C(=O)c2sc(Nc3ccccc3C(F)(F)F)nc21 | inactive: 13.2 µM
CCN1C(=O)C/C(=C\C(C)=O)Nc2ccccc21 | inactive: > 100 µM
COc1ccc(C(CCC(C)=O)C(=O)O)cc1OC (configuration not stated) | inactive: > 100 µM
CC1=CC(=O)C(=O)C2=C1OC1(C2)C(C)CCC2C3(C)CCC(O)C(C)(C)C3CCC21C (configuration not stated) | inactive: 24.5 µM
COc1cc(NC=C2C(=O)OC(C)(C)OC2=O)c(OC)c(C)c1OC | inactive: > 100 µM
Cc1ncc(COP(=O)(O)O)c(/C=C2\SC(=S)NC2=O)c1O | inactive: > 100 µM
C/C(=C\CC[C@]1(C)OC(C)(C)OC1CC/C(C)=C/CO[Si](c1ccccc1)(c1ccccc1)C(C)(C)C)CC/C=C/CO[Si](C)(C)C(C)(C)C (some centres not stated) | inactive: > 100 µM
COc1cc2c(cc1OCCCOc1cc3c(cc1OC)C(=O)N1CCC[C@H]1C(=O)N3)N=C[C@@H]1CCCN1C2=O | inactive: 22.5 µM
Oc1cc(-c2cccc(Cl)c2)nc2cc3c(cc12)OCO3 | inactive: 1.16 µM
Cc1ccc2[nH]c3c(C)c4c(c(C)c3c2c1)CN(C)C=C4 | inactive: 2.54 µM
COc1cc(CNc2ccc(C)cc2)cc(OC)c1OC | active: 0.984 µM

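Following 48 hours of exposure in 96-well plates, responses at five concentrations were used to interpolate endpoints linearly. GI50 marks 50% less growth.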 The source made the active and inactive calls. Rule as the data show it: active = GI50 up to about 1.1 µM and inactive = higher.
